The source of these data is paper PMC12820563.

The list shows a part of the results. The list includes weakly bound sequences.

This experiment concerns the target T1, MBP-FoxP3dN (UniProt Q99JB6).
T1 sequence: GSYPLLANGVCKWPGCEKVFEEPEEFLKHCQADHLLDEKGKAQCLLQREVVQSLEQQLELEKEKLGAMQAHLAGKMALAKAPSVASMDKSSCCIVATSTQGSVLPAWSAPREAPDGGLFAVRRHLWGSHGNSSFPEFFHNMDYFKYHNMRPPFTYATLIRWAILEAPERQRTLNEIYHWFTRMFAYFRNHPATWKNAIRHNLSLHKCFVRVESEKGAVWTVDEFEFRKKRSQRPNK
Kind of experiment: PD-seq (MBP pull-down with sequencing). To be noted: 20 mM Tris-HCl pH 7.5, 100 mM NaCl, 1.5 mM MgCl2, 0.4 uM protein, 0.1 uM dsDNA library, 30 min, room temperature, amylose pull-down; high values mean tight binding; double strand, one strand shown.
With “GATGATTGTTCTCCCAGCTGATGAATTCAAAATCTCGAGTAAACAAATTTTCCTAATCTTTCTGTTCAAGCGCCATCTAC”, the binding signal (RPM ratio (pull-down/input)) was 0.23.
Turning to “GATGATTGTTCTCCCAGCTGATGAATTATAGGGTTCGAGTAAACAAATTTTCCTAATCTTTCTGTTCAAGCGCCATCTAC”, the binding signal (RPM ratio (pull-down/input)) came out at 0.431.
Then “GATGATTGTTCTCCCAGCTGATGAATTTTCGCCCTCGAGTAAACAAATTTTCCTAATCTTTCTGTTCAAGCGCCATCTAC”, with 0.493; and “GATGATTGTTCTCCCAGCTGATGAATTATGGGTTTCGAGTAAACAAATTTTCCTAATCTTTCTGTTCAAGCGCCATCTAC”, with 0.848.
As for “GATGATTGTTCTCCCAGCTGATGAATTTGATCAGTCGAGTAAACAAATTTTCCTAATCTTTCTGTTCAAGCGCCATCTAC”, the figure is 0.298; as for “GATGATTGTTCTCCCAGCTGATGAATTACTTATATCGAGTAAACAAATTTTCCTAATCTTTCTGTTCAAGCGCCATCTAC”, 0.411.
As for “GATGATTGTTCTCCCAGCTGATGAATTCTCCACATCGAGTAAACAAATTTTCCTAATCTTTCTGTTCAAGCGCCATCTAC”, the figure is 0.237; as for “GATGATTGTTCTCCCAGCTGATGAATTTGTAGGCTCGAGTAAACAAATTTTCCTAATCTTTCTGTTCAAGCGCCATCTAC”, 3.58; as for “GATGATTGTTCTCCCAGCTGATGAATTCTTGAGCTCGAGTAAACAAATTTTCCTAATCTTTCTGTTCAAGCGCCATCTAC”, 0.195.
For “GATGATTGTTCTCCCAGCTGATGAATTACCCCGGTCGAGTAAACAAATTTTCCTAATCTTTCTGTTCAAGCGCCATCTAC”, the binding signal (RPM ratio (pull-down/input)) came to 0.202.
As for “GATGATTGTTCTCCCAGCTGATGAATTTAGGGGCTCGAGTAAACAAATTTTCCTAATCTTTCTGTTCAAGCGCCATCTAC”, the figure is 0.48; as for “GATGATTGTTCTCCCAGCTGATGAATTGGCAGCTTCGAGTAAACAAATTTTCCTAATCTTTCTGTTCAAGCGCCATCTAC”, 0.472.
Then “GATGATTGTTCTCCCAGCTGATGAATTCCAAGAGTCGAGTAAACAAATTTTCCTAATCTTTCTGTTCAAGCGCCATCTAC”, with 0.219; and “GATGATTGTTCTCCCAGCTGATGAATTGCTCTATTCGAGTAAACAAATTTTCCTAATCTTTCTGTTCAAGCGCCATCTAC”, with 0.572.
Then “GATGATTGTTCTCCCAGCTGATGAATTTAGGTGTTCGAGTAAACAAATTTTCCTAATCTTTCTGTTCAAGCGCCATCTAC”, with 1.17; and “GATGATTGTTCTCCCAGCTGATGAATTTCATCTATCGAGTAAACAAATTTTCCTAATCTTTCTGTTCAAGCGCCATCTAC”, with 0.653.
Take “GATGATTGTTCTCCCAGCTGATGAATTCTCCTGGTCGAGTAAACAAATTTTCCTAATCTTTCTGTTCAAGCGCCATCTAC”: the binding signal (RPM ratio (pull-down/input)) was found to be 0.156.
Then “GATGATTGTTCTCCCAGCTGATGAATTGCACGCGTCGAGTAAACAAATTTTCCTAATCTTTCTGTTCAAGCGCCATCTAC”, with 1.28.
Then “GATGATTGTTCTCCCAGCTGATGAATTTACACAGTCGAGTAAACAAATTTTCCTAATCTTTCTGTTCAAGCGCCATCTAC”, with 0.436.
Then “GATGATTGTTCTCCCAGCTGATGAATTTTTTGCCTCGAGTAAACAAATTTTCCTAATCTTTCTGTTCAAGCGCCATCTAC”, with 0.432.
For the sequence “GATGATTGTTCTCCCAGCTGATGAATTTCCTACATCGAGTAAACAAATTTTCCTAATCTTTCTGTTCAAGCGCCATCTAC”, the binding signal (RPM ratio (pull-down/input)) came to 0.259.
For “GATGATTGTTCTCCCAGCTGATGAATTAGTGGCATCGAGTAAACAAATTTTCCTAATCTTTCTGTTCAAGCGCCATCTAC”, the binding signal (RPM ratio (pull-down/input)) amounted to 1.8.
For the sequence “GATGATTGTTCTCCCAGCTGATGAATTCACCCGTTCGAGTAAACAAATTTTCCTAATCTTTCTGTTCAAGCGCCATCTAC”, the binding signal (RPM ratio (pull-down/input)) is 0.276.
As for “GATGATTGTTCTCCCAGCTGATGAATTGCATGGTTCGAGTAAACAAATTTTCCTAATCTTTCTGTTCAAGCGCCATCTAC”, the figure is 1.89.
Turning to “GATGATTGTTCTCCCAGCTGATGAATTAGCGAAATCGAGTAAACAAATTTTCCTAATCTTTCTGTTCAAGCGCCATCTAC”, the binding signal (RPM ratio (pull-down/input)) was 0.42.
Then “GATGATTGTTCTCCCAGCTGATGAATTTTGCTGTTCGAGTAAACAAATTTTCCTAATCTTTCTGTTCAAGCGCCATCTAC”, with 5.2.
Consider “GATGATTGTTCTCCCAGCTGATGAATTGCAGGTTTCGAGTAAACAAATTTTCCTAATCTTTCTGTTCAAGCGCCATCTAC”, for which the binding signal (RPM ratio (pull-down/input)) is 0.872.
Regarding “GATGATTGTTCTCCCAGCTGATGAATTAACTCTCTCGAGTAAACAAATTTTCCTAATCTTTCTGTTCAAGCGCCATCTAC”, the binding signal (RPM ratio (pull-down/input)) stood at 0.285.
Then “GATGATTGTTCTCCCAGCTGATGAATTGATGTCGTCGAGTAAACAAATTTTCCTAATCTTTCTGTTCAAGCGCCATCTAC”, with 0.945.
As for “GATGATTGTTCTCCCAGCTGATGAATTTTGGTTTTCGAGTAAACAAATTTTCCTAATCTTTCTGTTCAAGCGCCATCTAC”, the figure is 1.13; as for “GATGATTGTTCTCCCAGCTGATGAATTGGAACCGTCGAGTAAACAAATTTTCCTAATCTTTCTGTTCAAGCGCCATCTAC”, 0.224.
As for “GATGATTGTTCTCCCAGCTGATGAATTACGTTAGTCGAGTAAACAAATTTTCCTAATCTTTCTGTTCAAGCGCCATCTAC”, the figure is 1.14.
In the case of “GATGATTGTTCTCCCAGCTGATGAATTCGCTTAATCGAGTAAACAAATTTTCCTAATCTTTCTGTTCAAGCGCCATCTAC”, the binding signal (RPM ratio (pull-down/input)) came out at 0.35.
Then “GATGATTGTTCTCCCAGCTGATGAATTTGGGGGATCGAGTAAACAAATTTTCCTAATCTTTCTGTTCAAGCGCCATCTAC”, with 0.424.
Regarding “GATGATTGTTCTCCCAGCTGATGAATTCTTCTTGTCGAGTAAACAAATTTTCCTAATCTTTCTGTTCAAGCGCCATCTAC”, the binding signal (RPM ratio (pull-down/input)) was 0.303.
As for “GATGATTGTTCTCCCAGCTGATGAATTTAGTCTATCGAGTAAACAAATTTTCCTAATCTTTCTGTTCAAGCGCCATCTAC”, the figure is 1.1.
Then “GATGATTGTTCTCCCAGCTGATGAATTCTTACCCTCGAGTAAACAAATTTTCCTAATCTTTCTGTTCAAGCGCCATCTAC”, with 0.224; and “GATGATTGTTCTCCCAGCTGATGAATTGAAATTATCGAGTAAACAAATTTTCCTAATCTTTCTGTTCAAGCGCCATCTAC”, with 0.534.
Then “GATGATTGTTCTCCCAGCTGATGAATTTAATTGTTCGAGTAAACAAATTTTCCTAATCTTTCTGTTCAAGCGCCATCTAC”, with 4.55; and “GATGATTGTTCTCCCAGCTGATGAATTGGAGGAGTCGAGTAAACAAATTTTCCTAATCTTTCTGTTCAAGCGCCATCTAC”, with 0.208; and “GATGATTGTTCTCCCAGCTGATGAATTATTTGCGTCGAGTAAACAAATTTTCCTAATCTTTCTGTTCAAGCGCCATCTAC”, with 2.03.
“GATGATTGTTCTCCCAGCTGATGAATTCGAAGCCTCGAGTAAACAAATTTTCCTAATCTTTCTGTTCAAGCGCCATCTAC”: the binding signal (RPM ratio (pull-down/input)) turned out to be 0.363.
Then “GATGATTGTTCTCCCAGCTGATGAATTATACCTCTCGAGTAAACAAATTTTCCTAATCTTTCTGTTCAAGCGCCATCTAC”, with 0.525; and “GATGATTGTTCTCCCAGCTGATGAATTTGCTCACTCGAGTAAACAAATTTTCCTAATCTTTCTGTTCAAGCGCCATCTAC”, with 0.507.
As for “GATGATTGTTCTCCCAGCTGATGAATTCAAACTTTCGAGTAAACAAATTTTCCTAATCTTTCTGTTCAAGCGCCATCTAC”, the binding signal (RPM ratio (pull-down/input)) turned out to be 0.408.
For the sequence “GATGATTGTTCTCCCAGCTGATGAATTGGTATCATCGAGTAAACAAATTTTCCTAATCTTTCTGTTCAAGCGCCATCTAC”, the binding signal (RPM ratio (pull-down/input)) came to 1.44.
Turning to “GATGATTGTTCTCCCAGCTGATGAATTATGCATTTCGAGTAAACAAATTTTCCTAATCTTTCTGTTCAAGCGCCATCTAC”, the binding signal (RPM ratio (pull-down/input)) amounted to 7.25.
As for “GATGATTGTTCTCCCAGCTGATGAATTCAACGAATCGAGTAAACAAATTTTCCTAATCTTTCTGTTCAAGCGCCATCTAC”, the binding signal (RPM ratio (pull-down/input)) came to 0.244.
Turning to “GATGATTGTTCTCCCAGCTGATGAATTCGCACTATCGAGTAAACAAATTTTCCTAATCTTTCTGTTCAAGCGCCATCTAC”, the binding signal (RPM ratio (pull-down/input)) stood at 0.526.
In the case of “GATGATTGTTCTCCCAGCTGATGAATTATTCTTATCGAGTAAACAAATTTTCCTAATCTTTCTGTTCAAGCGCCATCTAC”, the binding signal (RPM ratio (pull-down/input)) worked out at 0.33.
Regarding “GATGATTGTTCTCCCAGCTGATGAATTCCGGCCCTCGAGTAAACAAATTTTCCTAATCTTTCTGTTCAAGCGCCATCTAC”, the binding signal (RPM ratio (pull-down/input)) was determined as 0.341.
For the sequence “GATGATTGTTCTCCCAGCTGATGAATTACTCAGGTCGAGTAAACAAATTTTCCTAATCTTTCTGTTCAAGCGCCATCTAC”, the binding signal (RPM ratio (pull-down/input)) is 0.22.
As for “GATGATTGTTCTCCCAGCTGATGAATTTTAATCCTCGAGTAAACAAATTTTCCTAATCTTTCTGTTCAAGCGCCATCTAC”, the figure is 0.333; as for “GATGATTGTTCTCCCAGCTGATGAATTAGTTATGTCGAGTAAACAAATTTTCCTAATCTTTCTGTTCAAGCGCCATCTAC”, 3.79; as for “GATGATTGTTCTCCCAGCTGATGAATTCGAGAATTCGAGTAAACAAATTTTCCTAATCTTTCTGTTCAAGCGCCATCTAC”, 0.642.
Then “GATGATTGTTCTCCCAGCTGATGAATTTTAACTATCGAGTAAACAAATTTTCCTAATCTTTCTGTTCAAGCGCCATCTAC”, with 0.485; and “GATGATTGTTCTCCCAGCTGATGAATTTCATAGGTCGAGTAAACAAATTTTCCTAATCTTTCTGTTCAAGCGCCATCTAC”, with 0.343; and “GATGATTGTTCTCCCAGCTGATGAATTCTCAGGGTCGAGTAAACAAATTTTCCTAATCTTTCTGTTCAAGCGCCATCTAC”, with 0.155.
Then “GATGATTGTTCTCCCAGCTGATGAATTGGGTAAGTCGAGTAAACAAATTTTCCTAATCTTTCTGTTCAAGCGCCATCTAC”, with 0.303.
As to “GATGATTGTTCTCCCAGCTGATGAATTCACCAAGTCGAGTAAACAAATTTTCCTAATCTTTCTGTTCAAGCGCCATCTAC”, the binding signal (RPM ratio (pull-down/input)) was 0.173.
Then “GATGATTGTTCTCCCAGCTGATGAATTTACTGCTTCGAGTAAACAAATTTTCCTAATCTTTCTGTTCAAGCGCCATCTAC”, with 0.692; and “GATGATTGTTCTCCCAGCTGATGAATTAATCATTTCGAGTAAACAAATTTTCCTAATCTTTCTGTTCAAGCGCCATCTAC”, with 0.933; and “GATGATTGTTCTCCCAGCTGATGAATTGACTCAATCGAGTAAACAAATTTTCCTAATCTTTCTGTTCAAGCGCCATCTAC”, with 0.336.
